Results: paper PMC8249470, “Binding of guide piRNA triggers methylation of the unstructured N-terminal region of Aub leading to assembly of the piRNA amplification complex” (Nature Communications, 2021)
Results are given in words; binding and its absence hold for the method and conditions named. In cells and extracts the contact can be indirect. Some binding calls cover weakened binding; strength is not graded here. Where a sequence is shown, tags or fusion partners need not be part of it.

T1: FLAG-tagged Aub (Drosophila melanogaster), O76922
T1 chain: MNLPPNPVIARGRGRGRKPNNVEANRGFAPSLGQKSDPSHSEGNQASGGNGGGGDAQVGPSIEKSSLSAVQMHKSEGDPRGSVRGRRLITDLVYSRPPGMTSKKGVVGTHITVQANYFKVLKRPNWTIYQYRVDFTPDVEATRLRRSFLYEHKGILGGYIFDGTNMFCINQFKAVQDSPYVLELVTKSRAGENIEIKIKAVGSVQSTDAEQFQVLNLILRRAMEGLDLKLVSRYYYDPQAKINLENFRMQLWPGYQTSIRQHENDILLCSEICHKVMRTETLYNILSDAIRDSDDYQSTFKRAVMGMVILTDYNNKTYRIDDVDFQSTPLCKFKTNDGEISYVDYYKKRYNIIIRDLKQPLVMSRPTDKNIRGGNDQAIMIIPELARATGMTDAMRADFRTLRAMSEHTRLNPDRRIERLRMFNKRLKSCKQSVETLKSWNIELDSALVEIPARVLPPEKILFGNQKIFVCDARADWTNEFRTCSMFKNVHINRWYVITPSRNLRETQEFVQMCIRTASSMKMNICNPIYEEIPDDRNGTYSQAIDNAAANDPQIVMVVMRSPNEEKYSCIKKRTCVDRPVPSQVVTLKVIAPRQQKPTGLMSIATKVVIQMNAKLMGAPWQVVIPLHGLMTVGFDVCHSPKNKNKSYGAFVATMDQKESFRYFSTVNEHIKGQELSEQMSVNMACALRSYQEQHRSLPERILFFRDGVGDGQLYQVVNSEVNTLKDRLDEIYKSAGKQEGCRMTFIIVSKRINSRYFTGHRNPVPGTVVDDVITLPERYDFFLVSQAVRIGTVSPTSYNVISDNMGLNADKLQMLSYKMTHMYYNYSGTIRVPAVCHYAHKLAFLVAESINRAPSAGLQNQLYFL

T2: Aub expressed in S2 cells (tag not named) (Drosophila melanogaster) (UniProt O76922)
T2 sequence: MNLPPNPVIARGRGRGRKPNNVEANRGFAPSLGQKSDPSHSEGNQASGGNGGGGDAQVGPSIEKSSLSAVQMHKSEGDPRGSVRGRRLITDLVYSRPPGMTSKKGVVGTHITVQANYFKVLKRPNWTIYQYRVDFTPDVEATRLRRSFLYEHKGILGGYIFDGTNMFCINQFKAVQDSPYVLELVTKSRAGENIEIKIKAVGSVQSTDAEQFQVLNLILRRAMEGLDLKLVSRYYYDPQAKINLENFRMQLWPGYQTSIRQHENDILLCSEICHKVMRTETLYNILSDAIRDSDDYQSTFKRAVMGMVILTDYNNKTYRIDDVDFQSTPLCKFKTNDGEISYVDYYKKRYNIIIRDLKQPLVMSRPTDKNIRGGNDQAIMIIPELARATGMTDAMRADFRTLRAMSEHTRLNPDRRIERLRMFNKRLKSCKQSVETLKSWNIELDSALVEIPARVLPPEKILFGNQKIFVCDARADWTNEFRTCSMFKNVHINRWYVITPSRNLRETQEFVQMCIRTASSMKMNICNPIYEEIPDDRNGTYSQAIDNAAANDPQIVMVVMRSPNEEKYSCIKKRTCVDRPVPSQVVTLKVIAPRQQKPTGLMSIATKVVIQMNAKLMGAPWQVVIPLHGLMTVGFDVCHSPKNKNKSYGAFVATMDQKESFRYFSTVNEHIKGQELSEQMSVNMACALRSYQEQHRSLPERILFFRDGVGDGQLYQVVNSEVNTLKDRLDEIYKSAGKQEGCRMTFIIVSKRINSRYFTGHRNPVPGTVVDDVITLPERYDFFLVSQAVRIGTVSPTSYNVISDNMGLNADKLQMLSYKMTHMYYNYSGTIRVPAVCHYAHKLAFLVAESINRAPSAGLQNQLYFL

T3: HA-Aub (wild type) (Drosophila melanogaster) (UniProt O76922)
T3 sequence: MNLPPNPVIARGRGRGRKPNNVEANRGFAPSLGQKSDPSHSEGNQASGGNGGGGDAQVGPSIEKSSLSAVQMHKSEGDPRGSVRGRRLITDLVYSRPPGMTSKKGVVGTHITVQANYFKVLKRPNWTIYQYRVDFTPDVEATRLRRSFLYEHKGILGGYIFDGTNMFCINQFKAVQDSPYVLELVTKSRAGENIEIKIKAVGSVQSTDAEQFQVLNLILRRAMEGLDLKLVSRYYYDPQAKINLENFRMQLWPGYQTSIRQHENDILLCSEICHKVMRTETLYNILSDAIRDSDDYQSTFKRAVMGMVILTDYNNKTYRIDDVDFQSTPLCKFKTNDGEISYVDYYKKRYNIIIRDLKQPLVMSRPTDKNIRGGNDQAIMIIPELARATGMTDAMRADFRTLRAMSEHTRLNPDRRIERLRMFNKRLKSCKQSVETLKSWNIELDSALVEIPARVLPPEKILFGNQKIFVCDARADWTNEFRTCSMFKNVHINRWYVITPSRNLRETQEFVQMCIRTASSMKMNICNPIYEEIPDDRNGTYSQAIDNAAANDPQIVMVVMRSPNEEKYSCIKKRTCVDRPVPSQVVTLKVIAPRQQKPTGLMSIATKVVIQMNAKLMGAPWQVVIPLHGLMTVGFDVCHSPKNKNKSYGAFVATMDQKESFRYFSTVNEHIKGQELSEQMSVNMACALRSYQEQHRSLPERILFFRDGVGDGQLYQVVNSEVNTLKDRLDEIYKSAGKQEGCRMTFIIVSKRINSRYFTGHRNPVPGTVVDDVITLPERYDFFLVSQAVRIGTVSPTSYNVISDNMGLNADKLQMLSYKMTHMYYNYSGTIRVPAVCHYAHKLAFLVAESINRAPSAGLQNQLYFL


Assays:
[1] = molecular target: T1, FLAG-tagged Aub (Drosophila …); experiment: co-IP; two-step sequential immunoprecipitation from S2 cells co-expressing FLAG-Aub, HA-Ago3 and GFP-deltaN-Krimper: FLAG IP, elution with 3X FLAG peptide, then GFP IP; Western blot; lysis buffer 20 mM Tris pH 7.4, 200 mM KCl, 0.1% Tween-20, 0.1% Igepal, 100 μg/mL RNase A; conditions: remark: other sources report otherwise
[2] = molecular target: T2, Aub expressed in S2 cells (tag not named) (Drosophila melanogaster); experiment: co-IP; tagged proteins co-expressed in S2 cells; lysis buffer 20 mM Tris pH 7.4, 200 mM KCl, 0.1% Tween-20, 0.1% Igepal, 100 μg/mL RNase A; anti-FLAG, anti-HA or anti-GFP beads, 4 °C, 4 h; Western blot; in Fig. 6e lysates were incubated with or without ssRNA oligo before the co-IP
[3] = molecular target: T3, HA-Aub (wild type) (Drosophila melanogaster); experiment: as above

| binding [2] | Binder | also measured |
| --- | --- | --- |
| – | HA-tagged Ago3, Q7PLK0 1-867 (protein) MSGRGNLLSLFNKNAGNMGKSISSKDHEIDSGLDFNNSESSGERLLSSHNIETDLITTLQHVNISVGRGRARLIDTLKTDDHTSNQFITSESKENITKKTKGPESEAIASENGLFFPDLIYGSKGSSVNIYCNYLKLTTDESKGVFNYEVRFFPPIDSVHLRIKYLNDHKDKLGGTKTFDGNTLYLPILLPNKMTVFISKAEDVELQIRILYKKKEEMRNCTQLYNILFDRVMKVLNYVKFDRKQFDPSRPKIIPLAKLEVWPGYVTAVDEYKGGLMLCCDVSHRILCQKTVLEMLVDLYQQNVEHYQESARKMLVGNIVLTRYNNRTYKINDICFDQNPTCQFEIKTGCTSYVEYYKQYHNINIKDVNQPLIYSIKKSRGIPAERENLQFCLIPELCYLTGLRDEVRSDNKLMREIATFTRVSPNQRQMALNKFYENVSNTPAAQEILNSWGLSLTNNSNKISGRQMDIEQIYFSKISVSAGRSAEFSKHAVTNEMLKVVHLSKWIIIHLRNYRQAATSLLDNMKQACESLGMNISNPTMISLDHDRIDAYIQALRRNITMNTQMVVCICHNRRDDRYAAIKKICCSEIPIPSQVINAKTLQNDLKIRSVVQKIVLQMNCKLGGSLWTVKIPFKNVMICGIDSYHDPSNRGNSVAAFVASINSSYSQWYSKAVVQTKREEIVNGLSASFEIALKMYRKRNGKLPTNIIIYRDGIGDGQLYTCLNYEIPQFEMVCGNRIKISYIVVQKRINTRIFSGSGIHLENPLPGTVVDQHITKSNMYDFFLVSQLVRQGTVTPTHYVVLRDDCNYGPDIIQKLSYKLCFLYYNWAGTVRIPACCMYAHKLAYLIGQSIQRDVAEALSEKLFYL | binding [1]: binds |
| binds | Valois (Vls) (protein, UniProt Q9VIP8 1-367) MFPQRSSELYRTPVTHQPPPALELAGNLEYPNLNIADLNARLENLSPRLHDCWDSIAINDHNHLALATNRREGRQWWGMLFGYGRDQMHHMSVDSANFKLQAEHTVNIVRYAEDDFLLVALGDTRLQAWSTYSKVRDSQSPYCLFLVGESSAHPTPISQLSVFKADPRTAVSGSADSTLNVWDLSGADMVSTYRSRSSHTDKLTGLATPAASVDKFVTCDRGGCARLWDVRAAAPSSTCLYADASHVLSFTSAAWAAASELQGDNHIYLGDYDGKVHTLDIRVPRKLAETREYFDKGHVAQLLINGPHLAAMSNLPASVKVANVQAGHEFIYTHQDTHSRLTDAVWTDDSTLITIGHGRKMVTHAIK | – |
| binds | GFP-Csul (enzyme, UniProt Q9U6Y9 1-610) MNYYVCLHQEGVNSIPKLIEKAFANNYNVVSTSINANMLPFEPHESDPTYPATILSGSDWNSKVIFTMSDVNVDSPNDKLREHAKEVFMRDVAWAEHLQNVGNLMVRLRGPENENLASIVLAKTKDDFPSGNWFIQVPITNPELATFEHRKDATAEEVAEAESNDPWNWWNNLRMVTKHSTKVKVVIELNDADRPSKETVRRWLGEPIEAIIIPSSLFVRNRSNYCVLKKEWQLIVGHFISVRANIIISTNPNDKALCQYADYVNKLINDNCDKHMLNSYENMLEIPLQPLCDNLDTYTYEVFETDPVKYKLYQDAVQAALLDRVSAAEAKTKLTVVMLLGGGRGPLARAVFNAAELTKRKVRLYIIEKNPNAIRTLSNMVKTLWADKDVHIFSKDMRDFSPPELADIMVSELLGSFGDNELSPECLDGALKLLKPDGISIPYKSTSYINPLMSAVLHQNVCQLLPTYPAFDYGYVSLLKNIYHIDEPQALFEFVHPNRAENIDNTRCKTVSFKVNKDCVLHGIGGYFDTHLYKDICLSINPLTHTPGMFSWFPMFFATRPRTLREGQTISIQFWRCVDATKVWYEWQVVNSPDDWEHHNTRGTGYNMRL | – |
| – | FLAG-Csul (enzyme, UniProt Q9U6Y9 1-610) MNYYVCLHQEGVNSIPKLIEKAFANNYNVVSTSINANMLPFEPHESDPTYPATILSGSDWNSKVIFTMSDVNVDSPNDKLREHAKEVFMRDVAWAEHLQNVGNLMVRLRGPENENLASIVLAKTKDDFPSGNWFIQVPITNPELATFEHRKDATAEEVAEAESNDPWNWWNNLRMVTKHSTKVKVVIELNDADRPSKETVRRWLGEPIEAIIIPSSLFVRNRSNYCVLKKEWQLIVGHFISVRANIIISTNPNDKALCQYADYVNKLINDNCDKHMLNSYENMLEIPLQPLCDNLDTYTYEVFETDPVKYKLYQDAVQAALLDRVSAAEAKTKLTVVMLLGGGRGPLARAVFNAAELTKRKVRLYIIEKNPNAIRTLSNMVKTLWADKDVHIFSKDMRDFSPPELADIMVSELLGSFGDNELSPECLDGALKLLKPDGISIPYKSTSYINPLMSAVLHQNVCQLLPTYPAFDYGYVSLLKNIYHIDEPQALFEFVHPNRAENIDNTRCKTVSFKVNKDCVLHGIGGYFDTHLYKDICLSINPLTHTPGMFSWFPMFFATRPRTLREGQTISIQFWRCVDATKVWYEWQVVNSPDDWEHHNTRGTGYNMRL | binding [3]: binds |
